Results reported in PubChem BioAssay AID463173 (ICCB-Longwood Screening Facility, Harvard Medical School, 2010).
About 1,700 (3.3%) of roughly 52,000 compounds were called active. Cut-off read from the data, not from the text of the source: active = survival mostly below about 52% (no sharp cut-off); inactive = mostly above about 56%. Some of the results follow.

These molecules were tested on Wild type (assay: S. aureus survival, RN4220 and DeltatarO strains – OD600, teichoic acid synthesis inhibitors, primary screen (AID 463173)). Settings: S. aureus RN4220 wild type/DeltatarO growth, OD600, 18 h, stronger effect = lower value, screened at 18.75 µg/mL (by protocol).

SMILES	survival
C=CC(=O)NC(C)(C)Cc1ccccc1	inactive: 112%
Cc1cc2ccc(C)c(C)c2nc1SCC#N	inactive: 112%
CCc1ccc(NC(=O)CC2C(=O)N(c3cccc(OC)c3)C(=O)N2Cc2ccc(F)cc2)cc1 (stereo unspecified)	inactive: 73%
COc1ccccc1NC(=O)Cn1c(SCC(=O)Nc2ccc(F)cc2)nc2ccccc21	inactive: 73%
O=C(NCCCN1CCOCC1)c1cc2ccccc2oc1=O	inactive: 91%
Cc1nc2ccn(Cc3ccccc3)c(=O)c2cc1C(=O)N1CCN(c2ccc(F)cc2)CC1	inactive: 66%
CCc1ccc(NC(=O)CC2C(=O)N(c3cccc(C)c3)C(=O)N2Cc2ccc(F)cc2)cc1 (stereo unspecified)	inactive: 72%
Cc1cc(NC(=O)n2ncc3c(C)cccc32)ccc1Br	inactive: 95%
COCCc1nn2c(=O)cc(COC(=O)C(c3ccccc3)c3ccccc3)nc2s1	inactive: 134%
CCOC(=O)c1cnc2cc(-c3ccc(OCC)cc3)nn2c1-c1ccccc1	inactive: 92%
CC(CN(C)C)OC(=O)c1ccc2c(c1)OCO2 (stereo unspecified)	inactive: 110%
Cc1cccc(N2CCN(C(c3cc4cc5c(cc4[nH]c3=O)OCO5)c3nnnn3CC3CCCO3)CC2)c1C (stereo unspecified)	inactive: 102%
COc1ccc(NC(=O)CSc2nccn2Cc2ccc3c(c2)OCO3)cc1	inactive: 49%
COc1ccc(C)cc1NC(=O)C(=O)NCC(c1cccnc1)N1CCc2ccccc21 (stereo unspecified)	inactive: 67%
CN(C)CCNC(=O)CN1C(=O)COc2ccc(S(=O)(=O)N3CCCC3)cc21	inactive: 80%
Cc1cc(C)c(NC(=O)CSc2ccc(-c3ccccn3)nn2)c(C)c1	inactive: 115%
CCOc1ccccc1NC(=O)c1c(NC(=O)COc2ccccc2)sc2c1CCCC2	inactive: 74%
COc1ccc(C2=Nc3ccccc3NC(c3cccs3)=N2)cc1	inactive: 61%
OCC(O)CNC(=S)NC1CCCCC1 (stereo unspecified)	inactive: 107%

SMILES	survival
Cc1ccc(-n2c3c(cc(C(=O)Nc4ccccc4C(N)=O)c2=O)C(=O)CC(C)(C)C3)cc1	inactive: 76%
O=C1CC(c2ccccc2)Sc2ccccc2N1Cc1ccc(F)cc1 (stereo unspecified)	active: 16%
Cc1ccc(-c2cc(C(=O)Nc3ccc(SC(F)F)cc3)no2)cc1F	inactive: 86%
COc1ccccc1CNC(=O)c1c[nH]c2ccc(S(=O)(=O)Nc3cc(C)cc(C)c3)cc2c1=O	inactive: 67%
CCCOc1ccc(CNC(=O)CCCn2ncn3c(cc4sc(CC)cc43)c2=O)cc1	inactive: 88%
CCNS(=O)(=O)c1ccc(NC(=O)CSc2nc(-c3ccco3)cc(C(F)(F)F)n2)cc1	inactive: 56%
COCC[N+]1(C)CCCCC1	inactive: 100%
CCCOc1ccc(NC(=O)CC2C(=O)N(c3ccccc3)C(=O)N2Cc2ccco2)cc1 (stereo unspecified)	inactive: 130%
COc1cccc(NC(=O)CCC(=O)N2Cc3ccccc3Oc3ncccc32)c1	inactive: 83%
Cc1ccc(CNC(=O)CSc2nc3ccsc3c(=O)n2Cc2ccccc2F)cc1	inactive: 121%
CC(C)CNS(=O)(=O)c1ccc(S(=O)(=O)N2CCCC(C(=O)NC3CCCCC3)C2)cc1 (stereo unspecified)	inactive: 110%
Cc1ccc(-n2cc(-c3ccccc3)c3c(N4CCCCC4)ncnc32)cc1	inactive: 80%
CC(C)OC(=O)c1cccc(NC(=O)Cn2nnc3sc4c(c3c2=O)CCCC4)c1	inactive: 82%
Cc1cccc(Nc2nnc(-c3ccc(C)c(S(=O)(=O)N4CCCCC4)c3)c3ccccc23)c1	inactive: 105%
Cc1ccc(S(=O)(=O)N2CCN(C(=O)c3cc(-c4ccc(Br)cc4)n[nH]3)CC2)c(C)c1	inactive: 71%
O=C1C2C(C(=O)N1CCO)C1C=CC2C12CC2 (stereo unspecified)	inactive: 120%
COC(=O)C1(CCSC)NC(c2ccc(N(C)C)cc2)C2C(=O)N(C)C(=O)C21 (stereo unspecified)	inactive: 111%
CCN(CC)c1ccc(NC(=O)c2cccn2-c2nnc(N3CCCCC3)s2)c(C)c1	inactive: 82%
Cc1c(Cl)cccc1-n1ncc(C(=O)N2CCN(c3ncccn3)CC2)c1C1CCN(C(=O)OC(C)(C)C)CC1	inactive: 81%

SMILES	survival
Cc1ccc(NC(=O)C(Cc2ccccc2)NS(=O)(=O)c2ccc3c(c2)c(=O)n(C)c(=O)n3C)c(C)c1 (stereo unspecified)	inactive: 68%
CCOc1ccccc1Nc1nc2ccccc2c2nncn12	inactive: 83%
COc1cccc2c1cc1c(=O)n(CC(=O)N3CCN(c4cccc(C)c4C)CC3)nc(C)n12	inactive: 87%
CCc1cccc(NS(=O)(=O)c2c(C)[nH]c(=O)[nH]c2=O)c1	inactive: 84%
COc1ccc(CCNC(=O)CCc2c(C)nc3c4c(C)cc(C)nc4nn3c2C)cc1OC	inactive: 86%
CCOc1ccc(CNC(=O)c2ccc3oc(=O)n(Cc4ccccc4)c3c2)cc1	inactive: 63%
CC(=O)c1c(C)oc2ccc(N(C(=O)Oc3ccccc3)S(=O)(=O)c3ccc(Cl)cc3)cc12	inactive: 77%
Cc1ccc(Cn2nnc3c(=O)[nH]c(C4CCN(C(=O)Cc5ccccc5F)CC4)nc32)cc1	inactive: 94%
Cc1ccc(CNC(=O)C2CCN(S(=O)(=O)N3CCCCC3)CC2)cc1	inactive: 68%
COc1ccc2c(c1)cc(CNc1ccc(OC)c(OC)c1)c(=O)n2CC(=O)Nc1ccccc1C	inactive: 78%
Fc1ccc(N2CCN(c3nc4ccccc4c4nc(-c5ccccc5)nn34)CC2)cc1	inactive: 82%
CC1CCN(S(=O)(=O)c2ccc3c(c2)CCN3C(=O)Nc2ccccc2Br)CC1	inactive: 88%
Cc1ccc(S(=O)(=O)Nc2cccc(-c3ccc(N4CCC(C)CC4)nn3)c2)s1	active: -3%
COc1ccc(OCC(=O)Nc2ccc(-c3nc4cc(C)cc(C)c4o3)cc2)cc1	inactive: 94%
Cc1ccc(NC(=O)C2CCCN(S(=O)(=O)c3ccc4[nH]c(=O)ccc4c3)C2)cc1Cl (stereo unspecified)	inactive: 86%
COc1ccc(CC(=O)Nc2nc3c(s2)CC(C)CC3)cc1 (stereo unspecified)	inactive: 90%
COc1ccc2c(c1)c1c(c(=O)n(CCc3ccccc3)c(=O)n1Cc1cccc(Cl)c1)n2C	inactive: 60%
CC(=O)Nc1cccc(NC(=O)c2cc3c(=O)n4cccc(C)c4nc3n2C)c1	inactive: 113%
